Test results from the antibiotic and cytotoxicity screens of Wong et al. (2023).
This is one part of the list.

tested on: HSkMC (human skeletal muscle cells); assay: cytotoxicity call (relative viability < 0.9); conditions: 10 µM

For `CCCCCN1CC=C[C@@]23O[C@@H]4C=CCOC(=O)[C@@H]4[C@H]2C(=O)N(CCCO)[C@@H]3C1=O`, which cytotoxicity call is on record?
Its cytotoxicity call is “inactive”.

Which cytotoxicity call does the source give for `COc1ccc(S(=O)(=O)N(C)C[C@@H]2Oc3cc(C#CC4CCCC4)ccc3S(=O)(=O)N([C@H](C)CO)C[C@H]2C)cc1` here?
Its cytotoxicity call is “inactive”.

With `C[C@@H]1CCCCO[C@H](CN(C)C(=O)CCC(F)(F)F)[C@@H](C)CN([C@@H](C)CO)C(=O)c2cc(NC(=O)CCC(F)(F)F)ccc2O1` as the molecule, how does the cytotoxicity call read?
The cytotoxicity call was “inactive”.

Which cytotoxicity call does the source give for `CN(C)CC(=O)N[C@H]1CC[C@H](CC(=O)O)O[C@H]1CO` here?
Its cytotoxicity call is “inactive”.

For `C[C@H](CO)N1C[C@H](C)[C@@H](CN(C)C(=O)Nc2ccc(C(F)(F)F)cc2)OCCCC[C@H](C)Oc2ccc(NS(=O)(=O)c3cccs3)cc2C1=O`, which cytotoxicity call is on record?
Its cytotoxicity call is “inactive”.

How did the cytotoxicity call turn out when `C[C@@H]1CN([C@H](C)CO)C(=O)Cc2cc(NS(=O)(=O)c3cn(C)cn3)ccc2O[C@H]1CN(C)S(=O)(=O)c1ccc(Cl)cc1` was run?
The cytotoxicity call was “inactive”.

`C[C@H](CO)N1C[C@H](C)[C@H](CN(C)C(=O)Nc2ccc3c(c2)OCO3)Oc2ncc(-c3cncnc3)cc2C1=O` was tested. Which cytotoxicity call did it give?
The cytotoxicity call was “inactive”.

`C[C@H](CO)N1C[C@H](C)[C@@H](CN(C)S(C)(=O)=O)Oc2ccc(NS(=O)(=O)c3ccccc3)cc2CC1=O` was tested. Which cytotoxicity call did it give?
Its cytotoxicity call is “inactive”.

For `C[C@@H]1CCCCO[C@@H](CN(C)C(=O)Nc2ccc(F)cc2)[C@@H](C)CN([C@H](C)CO)C(=O)c2cc(NS(=O)(=O)c3ccc(F)cc3)ccc2O1`, which cytotoxicity call is on record?
Its cytotoxicity call is “inactive”.

For `Cc1ccc(S(=O)(=O)N(C)C[C@@H]2Oc3ccc(NS(=O)(=O)c4c(C)noc4C)cc3CC(=O)N([C@@H](C)CO)C[C@@H]2C)cc1`, which cytotoxicity call is on record?
The cytotoxicity call was “inactive”.

With `c1ccc2n[nH]nc2c1` as the molecule, how does the cytotoxicity call read?
The cytotoxicity call was “inactive”.

`C[C@@H]1CN([C@H](C)CO)C(=O)CCCn2cc(nn2)CO[C@@H]1CN(C)C(=O)Nc1cccc(C(F)(F)F)c1` was tested. Which cytotoxicity call did it give?
The cytotoxicity call was “inactive”.

Which cytotoxicity call does the source give for `C[C@H](CO)N1C[C@H](C)[C@H](CN(C)C(=O)Nc2ccc3c(c2)OCO3)Oc2c(NS(C)(=O)=O)cccc2C1=O` here?
The cytotoxicity call was “inactive”.

For `C[C@H]1CN([C@@H](C)CO)C(=O)c2cccc(NC(=O)C3CCOCC3)c2O[C@@H]1CN(C)S(=O)(=O)c1cccs1`, which cytotoxicity call is on record?
The cytotoxicity call was “inactive”.

Which cytotoxicity call does the source give for `CC(C)NC(=O)Nc1ccc2c(c1)CC(=O)N([C@@H](C)CO)C[C@@H](C)[C@@H](CN(C)Cc1ccc(C(=O)O)cc1)O2` here?
The cytotoxicity call was “inactive”.

With `C[C@H](CO)N1C[C@H](C)[C@@H](CN(C)C(=O)Nc2ccccc2)OCCCC[C@H](C)Oc2ccc(NC(=O)Nc3ccc(F)cc3)cc2C1=O` as the molecule, how does the cytotoxicity call read?
Its cytotoxicity call is “inactive”.

`Cc1cc(C(=O)Nc2cccc3c2O[C@H](CN(C)S(=O)(=O)c2cccs2)[C@H](C)CN([C@H](C)CO)C3=O)n(C)n1` was tested. Which cytotoxicity call did it give?
The cytotoxicity call was “inactive”.

Which cytotoxicity call does the source give for `C[C@H](CO)N1C[C@H](C)[C@@H](CN(C)C(=O)NC2CCCCC2)Oc2c(NC(=O)C3CCOCC3)cccc2C1=O` here?
The cytotoxicity call was “inactive”.

`C=CCN1C[C@@H](C(=O)O)CCC1=O` was tested. Which cytotoxicity call did it give?
Its cytotoxicity call is “inactive”.

Which cytotoxicity call does the source give for `CO[C@H]1CN(C)C(=O)c2cc(NC(=O)Nc3ccccc3F)ccc2OC[C@@H](C)N(CCC(F)(F)F)C[C@@H]1C` here?
Its cytotoxicity call is “inactive”.

Which cytotoxicity call does the source give for `COc1ccc(S(=O)(=O)N(C)C[C@H]2Oc3ccc(NC(=O)CCCN(C)C)cc3C(=O)N([C@H](C)CO)C[C@H]2C)cc1` here?
Its cytotoxicity call is “inactive”.

For `O=C(Nc1cccc2cccnc12)[C@H]1[C@@H](c2ccc(Br)cc2)CC(=O)N1C(=O)OCc1ccccc1`, which cytotoxicity call is on record?
The cytotoxicity call was “inactive”.

With `C[C@H](CO)N1C[C@H](C)[C@H](CN(C)Cc2ccncc2)Oc2c(NC(=O)c3cnccn3)cccc2C1=O` as the molecule, how does the cytotoxicity call read?
The cytotoxicity call was “inactive”.

How did the cytotoxicity call turn out when `CO[C@H]1CN(C)C(=O)c2ccc(NC(=O)C3CC3)cc2OC[C@@H](C)N(C(=O)C2CCOCC2)C[C@H]1C` was run?
The cytotoxicity call was “inactive”.

`C[C@@H]1CN([C@H](C)CO)C(=O)c2cc(NS(=O)(=O)c3cn(C)cn3)ccc2O[C@H]1CN(C)S(=O)(=O)c1cn(C)cn1` was tested. Which cytotoxicity call did it give?
The cytotoxicity call was “inactive”.

Which cytotoxicity call does the source give for `CCOC(=O)[C@@H](C#N)C(=O)C1CC1` here?
Its cytotoxicity call is “inactive”.

Which cytotoxicity call does the source give for `CN(C)CC(=O)N[C@@H]1C=C[C@H](CC(=O)O)O[C@H]1CO` here?
The cytotoxicity call was “inactive”.

Which cytotoxicity call does the source give for `C[C@@H]1CN([C@@H](C)CO)C(=O)c2cc(NC(=O)Cc3ccccc3)ccc2O[C@@H]1CN(C)S(=O)(=O)c1cccs1` here?
The cytotoxicity call was “inactive”.

How did the cytotoxicity call turn out when `C[C@@H]1CCCCO[C@H](CN(C)S(=O)(=O)c2ccc(F)cc2)[C@@H](C)CN([C@@H](C)CO)C(=O)c2cc(NC(=O)Nc3ccc4c(c3)OCO4)ccc2O1` was run?
The cytotoxicity call was “inactive”.

How did the cytotoxicity call turn out when `C=CC[C@H](CC(=O)N[C@@H](CO)Cc1ccccc1)C(=O)N[C@H](COC(=O)[C@@H](CC=C)Cc1ccc(F)cc1)Cc1c[nH]c2ccccc12` was run?
Its cytotoxicity call is “inactive”.
